Data from the supplement of paper PMC10981050.
Where “and” joins values, the source holds several entries; their conditions need not be identical. Equal entries are not always repeated. The entries are a selection whose mix differs from that of the whole data set.

Key:
Test in all cases: cell viability relative to vehicle control; higher = less cytotoxic
Settings in all cases: 10 µM
K562 = system: K562
Method in brief: (§1)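 Four leukaemia lines, as CRISPR-edited mutant clones and isogenic wild-type clones, were tested against Selleck bioactive, kinase and epigenetic probe libraries after removal of identity-inconsistent compounds. Cells were exposed to a single 10 µM dose for 48 h, and CellTiter-Glo luminescence was then read. Viability was calculated relative to the on-plate vehicle control.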

MARIMO = system: MARIMO
Method in brief: as §1

MOLM14 = system: MOLM14
Method in brief: as §1

OCI-AML2 = system: OCI-AML2
Method in brief: as §1

| Structure (SMILES) | cell viability (K562; SRSF2 genotype: SRSF2 P95H/wt) | cell viability (K562; SRSF2 genotype: SRSF2 wt/wt) | cell viability (MARIMO; SRSF2 genotype: SRSF2 P95H/wt) | cell viability (MARIMO; SRSF2 genotype: SRSF2 wt/wt) | cell viability (MOLM14; SRSF2 genotype: SRSF2 P95H/wt) | cell viability (MOLM14; SRSF2 genotype: SRSF2 wt/wt) | cell viability (OCI-AML2; SRSF2 genotype: P95H/wt) | cell viability (OCI-AML2; SRSF2 genotype: wt/wt) |
| --- | --- | --- | --- | --- | --- | --- | --- | --- |
| Cc1nc2c(-c3cnc(N)nc3)nc(N3CCOCC3)nc2n1C(C)C | 44.4% and 43% | 37.7% | 42.6% | 39.5% | 27.7% | 25.6% | 8.06% | 16.9% |
| Cc1ccccc1-n1c(Cn2nc(-c3cccc(O)c3)c3c(N)ncnc32)nc2cccc(C)c2c1=O | 89.5% and 101% | 88.4% | 98.3% | 88.4% | 84.7% | 76.6% | 85.5% | 82.2% |
| Cc1ccc(C(=O)NCCCCCC(=O)Nc2ccccc2N)cc1 | 70.3% and 81.1% | 83% | 50.5% | 47.1% | 39.2% | 30.1% | 29.4% | 42.5% |
| COC(=O)C(CCCN=C(N)N)NS(=O)(=O)c1ccc(C)cc1 (stereo unspecified) | 109% and 104% | 114% | 99.5% | 99% | 102% | 107% | 96.6% | 117% |
| CN1C2CCC1CC(OC(=O)C(O)c1ccccc1)C2 (stereo unspecified) [Homatropine Bromide] |  |  | 104% | 118% | 106% | 105% |  |  |
